In the supplement of paper PMC4466236:
The full ranking holds about 33,000 sequences; the median of “E-score (dimensionless, -0.5 to 0.5)” is about -0.058, and the highest 2% start at about 0.35. This is one part of the list.

Each sequence was assayed on MvaT (assay: PBM 8-mer E-score (mean of HK and ME arrays) (E-score (dimensionless, -0.5 to 0.5)); higher = stronger relative binding preference; most listed sequences are background and not binding sites).
How it was run: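 Full-length P. aeruginosa MvaT carrying an N-terminal glutathione S-transferase tag was tested by protein binding microarray following a previously described protocol. Two universal double-stranded 60-mer arrays, ME and HK, were used, each with a constant 25-mer primer region and a variable 35-mer region covering all 8-mers. The rank-based E-score is the mean of the two arrays, parsed with a custom script. Its range runs from -0.5 to 0.5 for each 8-mer.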

Sequence | PBM 8-mer E-score
AGCATTAC | 0.0736
GGGATGAA | 0.0505
AAAACTTC | 0.149
AGTGCTTC | -0.151
GAAGGTGA | -0.104
ACTACTGA | 0.0939
ATAAACCA | 0.331
ATCGCCTC | -0.24
ACTGCCGG | -0.0714
AAAGTATC | 0.211
AGGAATAG | -0.104
CTCGGCCC | -0.198
ACTCACAG | -0.0989
CTCCGATC | -0.186
TGCCTGAA | -0.0387
AATCTCCG | 0.0198
GAGGCATA | -0.0069
CATTTCAA | 0.067
GCTGGAAA | -0.0389
GCAATCGC | -0.0395
ATTGTCTA | 0.176
ATCTGATA | 0.188

Sequence | PBM 8-mer E-score
CCACAATA | 0.182
CTAATTGA | 0.11
CGTAGGCA | -0.226
AATGGCTC | -0.0946
GCTCGTTA | 0.0378
ATAACAAC | 0.228
ATATTAAC | 0.434
GCATACCC | 0.0205
CTCTGCCA | -0.234
CTCGGACA | -0.204
CCTAACTC | -0.00572
CAAACGTC | 0.0149
GATATCAA | 0.25
GAACTGCA | -0.0114
TGTGGCAA | 0.0676
GACTCCAA | 0.021
CAAGACTA | 0.15
CATGGGAG | -0.242
GCGACAAA | 0.0622
ACACTGAA | 0.084
ATCTCAAA | 0.0937
CAGACTTA | 0.116

Sequence | PBM 8-mer E-score
CGCGGTAG | -0.161
GCTACAGA | -0.201
CCTGACCA | -0.225
TCATACCA | 0.0385
ACAGGATA | 0.111
TCTCCGAA | -0.0929
AACATACC | 0.0787
AGATTGAA | 0.0952
CCCGCCCG | -0.121
ACCTCCCC | -0.224
ATACCTCC | -0.172
ACGCTCCA | -0.196
GCGGTAAA | 0.0188
ACCAAGCC | -0.256
AGTTGTGG | 0.136
AAGGCTAC | -0.197
ACGTGTGG | -0.0151
CTCGGCAC | -0.162
CGTTCTGC | -0.0587
GGGCAAAC | -0.00413
TAGCCGGA | -0.218
CCCAGAAA | -0.116

Sequence | PBM 8-mer E-score
GAAGAGTA | -0.00757
AACGACAG | -0.0946
GACGCCAA | -0.138
CCAAGCTA | -0.0982
AAATAGAG | 0.171
CGGGAACA | -0.197
TCTTGGCA | -0.0864
AATCTAAG | 0.102
AGTTTAAT | 0.379
ACATGGTC | -0.222
CCTGAGCC | -0.36
AAACCGCT | -0.108
CCAACATC | 0.0587
ATTCACCA | 0.225
CTTGTACA | -0.000693
CTACACCA | -0.0178
AAACGAGC | -0.0752
ACACGTCT | -0.118
AGTAAGGG | -0.0556
ATCTAGTG | -0.0694
CGACTTAA | 0.226
CGAACTGC | 0.0227

Sequence | PBM 8-mer E-score
GGCAATAA | 0.228
CTCCTGCC | -0.23
AGAAACTG | 0.0568
TGTCGAAA | 0.147
CTGGTGAC | -0.142
GGAAAGCA | -0.275
CAGATTGA | -0.00818
CAATAGTG | 0.248
GGTGGAGA | -0.174
CAAGACTG | 0.00304
AGGGGTGG | -0.319
GATCAAGC | -0.154
CGCCTGGC | -0.109
ACAAGACG | -0.127
CATCCGTA | 0.0263
GAGCACCA | -0.227
CACACGTG | -0.139
CCGCCAAG | -0.146
ACCTAAGA | -0.0551
CCGATTTA | 0.0508
ACAAATCT | 0.0455
